Measurements from article PMC4891693, “Discovery of prenylated flavonoids with dual activity against influenza virus and Streptococcus pneumoniae” (Scientific Reports, 2016).

What follows are compounds tested against NA of influenza virus A/Jena/8178/2009 (8178/09; A(H1N1)pdm09) (Influenza A virus, UniProt A0A088CA11) (assay: not given). Settings: pH 6; read-out: IC50 in FL assay against IAV 8178/09.
Assay type: biochemical
Work on `CCC(CC)O[C@@H]1C=C(C(=O)O)C[C@H](N)[C@H]1NC(C)=O` [Oseltamivir carboxylate GS4071, reference compound] yielded an IC50 of 0.004 ± 0.001 µM. Work on sanggenon G [Compound 4] yielded an IC50 of 30.9 ± 6.46 µM.

Each compound was assayed against recombinant NanA of pneumococcal strain DSM20566 (rNanA) (Streptococcus pneumoniae, UniProt P62576) (assay: biochemical). Settings: IC50 in FL assay against S. pneumoniae rNanA, pure compounds; MUNANA, pH 6.0; highest tested 100 μM.
recombinant NanA of pneumococcal strain DSM20566 (rNanA), sequence (P62576 54-1006): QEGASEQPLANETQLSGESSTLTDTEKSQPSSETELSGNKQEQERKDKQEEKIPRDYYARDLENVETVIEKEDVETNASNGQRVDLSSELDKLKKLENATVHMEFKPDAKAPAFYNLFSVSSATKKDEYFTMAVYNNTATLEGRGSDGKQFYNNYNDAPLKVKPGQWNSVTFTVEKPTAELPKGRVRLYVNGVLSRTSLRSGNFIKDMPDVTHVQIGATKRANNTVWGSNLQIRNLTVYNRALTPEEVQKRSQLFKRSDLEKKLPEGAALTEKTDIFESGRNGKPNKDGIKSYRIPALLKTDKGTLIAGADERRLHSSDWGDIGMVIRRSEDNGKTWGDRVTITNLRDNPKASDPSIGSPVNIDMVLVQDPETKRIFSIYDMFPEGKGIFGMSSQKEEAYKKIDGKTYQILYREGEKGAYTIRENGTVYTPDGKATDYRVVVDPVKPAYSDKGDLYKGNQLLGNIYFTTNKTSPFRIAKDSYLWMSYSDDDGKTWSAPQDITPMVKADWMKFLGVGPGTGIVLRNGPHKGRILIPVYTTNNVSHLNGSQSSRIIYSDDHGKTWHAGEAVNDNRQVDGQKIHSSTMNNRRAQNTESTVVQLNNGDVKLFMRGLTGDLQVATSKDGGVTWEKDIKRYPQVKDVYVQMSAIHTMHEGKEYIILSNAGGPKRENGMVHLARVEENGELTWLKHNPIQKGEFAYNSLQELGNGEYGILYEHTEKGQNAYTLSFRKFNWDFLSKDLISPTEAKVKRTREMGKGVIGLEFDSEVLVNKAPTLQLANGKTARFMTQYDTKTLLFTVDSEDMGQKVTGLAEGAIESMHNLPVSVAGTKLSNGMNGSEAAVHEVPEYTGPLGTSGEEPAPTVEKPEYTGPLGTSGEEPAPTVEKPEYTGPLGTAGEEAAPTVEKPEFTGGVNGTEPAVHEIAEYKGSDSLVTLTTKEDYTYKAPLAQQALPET
Assay type: biochemical
With `COc1ccc(C2CC(=O)c3c(O)cc(O)cc3O2)cc1O` (racemic) [Compound 10, (±)-hesperetin] the IC50 was 32.1 ± 5.66 µM. Work on `O=C1CC(c2ccc(O)c(O)c2)Oc2cc(O)cc(O)c21` (racemic) [Compound 11, (±)-eriodictyol] yielded an IC50 of 11.6 ± 4.45 µM. `COc1cc([C@H]2Oc3cc([C@H]4Oc5cc(O)cc(O)c5C(=O)[C@@H]4O)ccc3O[C@@H]2CO)ccc1O` (racemic) [Compound 17, (±)-silybin] was tested, and the IC50 was 24.6 ± 4.5 µM. Compound `CC(C)=CCc1cc(C2CC(=O)c3ccc(O)cc3O2)ccc1O` (racemic) [Compound 18, (±)-abyssinone II] has an IC50 of 68.4 ± 8.82 µM. With `CC(C)=CCC12Oc3cc(O)c(C4=CC5(C)CC(C4)c4ccc(O)cc4O5)c(O)c3C(=O)C1(O)Oc1cc(O)ccc12` (centres unmarked) [Compound 1, sanggenon B] the IC50 was 15 ± 3.48 µM. With `CC(C)=CC[C@]12Oc3cc(O)c([C@H]4C=C(C)C[C@H](c5ccc(O)cc5O)[C@H]4C(=O)c4ccc(O)cc4O)c(O)c3C(=O)[C@@]1(O)Oc1cc(O)ccc12` [Compound 2, sanggenon C] the IC50 was 11.3 ± 1.27 µM. `CC(C)=CCC/C(C)=C/Cc1c(O)ccc([C@@H]2CC(=O)c3c(O)cc(O)cc3O2)c1O` [Compound 5, sanggenol A] was tested, and the IC50 was 6.2 µM and 6.22 µM. With `CC1=C[C@H](c2c(O)ccc([C@@H]3CC(=O)c4c(O)cc(O)cc4O3)c2O)[C@@H](C(=O)c2ccc(O)cc2O)[C@H](c2ccc(O)cc2O)C1` [Compound 6, kuwanon L] the IC50 was 8.3 µM and 8.34 µM. `COc1c(O)cc2c(c1O)C(=O)CC(c1ccccc1)O2` (centres unmarked) [Compound 8, 2,3-dihydro-5,7-dihydroxy-6-methoxy-2-phenyl-4H-1-benzopyran-4-one] showed an IC50 of 24.5 ± 0.84 µM. Work on `O=C1CC(c2ccc(O)cc2O)Oc2cc(O)cc(O)c21` (centres unmarked) [Compound 12, 2',4',5,7-tetrahydroxyflavanone] yielded an IC50 of 11.5 ± 1.96 µM. In the case of `O=c1cc(-c2ccc(O)c(O)c2O)oc2cc(O)cc(O)c12` [Compound 14, 2',3',4',5,7-pentahydroxyflavone], the IC50 is reported as 13.8 ± 9.71 µM. Work on `O=c1c(O)c(-c2ccc(O)cc2O)oc2cc(O)cc(O)c12` [Compound 16, morin] yielded an IC50 of 20.3 ± 1.7 µM. Compound `COc1ccc(C2CC(=O)c3c(cc(O)c(CC=C(C)C)c3O)O2)cc1` (centres unmarked) [Compound 19] has an IC50 of 9.29 ± 1.49 µM. `CC(C)=CCc1cc(C2CC(=O)c3c(O)cc(O)cc3O2)ccc1O` (centres unmarked) [Compound 20, 4',5,7-trihydroxy-3'-prenylflavanone] was tested, and the IC50 was 11.1 ± 4.63 µM. With `COc1cc(C2CC(=O)c3c(O)cc(O)cc3O2)cc(CC=C(C)C)c1O` (centres unmarked) [Compound 21, 2,3-dihydro-5,7-dihydroxy-2-[4-hydroxy-3-methoxy-5-(3-methyl-2-butenyl)phenyl]-4H-1-benzopyran-4-one] the IC50 was 15 ± 5.5 µM. `CC(C)=CCC/C(C)=C/Cc1c(O)cc2c(c1O)C(=O)[C@H](O)[C@@H](c1ccc(O)cc1)O2` [Compound 26, bonanniol A] showed an IC50 of 12.6 ± 1.89 µM. `COc1c(CC=C(C)C)cc([C@@H]2CC(=O)c3c(O)cc(O)cc3O2)cc1CC=C(C)C` [Compound 27, abyssinone-V 4'-methyl ether] gave an IC50 of 2.18 ± 0.45 µM. With `CC(C)=CCc1c(O)c(CC=C(C)C)c2c(c1O)C(=O)C[C@@H](c1ccc(O)cc1)O2` [Compound 28, 6,8-diprenylnaringenin] the IC50 was 10.3 ± 2.57 µM. Compound `CC(C)=CCc1c(O)c(CC=C(C)C)c2c(c1O)C(=O)CC(c1cc(O)cc(O)c1)O2` (centres unmarked) [Compound 29, 2-(3,5-dihydroxyphenyl)-2,3-dihydro-5,7-dihydroxy-6,8-bis(3-methyl-2-buten-1-yl)-4H-1-benzopyran-4-one] has an IC50 of 24.5 ± 3.25 µM. In the case of `CC(C)=CCc1c(O)c(CC=C(C)C)c2occ(-c3ccc(O)cc3)c(=O)c2c1O` [Compound 30, 6,8-diprenylgenistein], the IC50 is reported as 10 µM. Work on `CC(C)=CCc1c(O)c(CC=C(C)C)c2occ(-c3ccc(O)c(O)c3)c(=O)c2c1O` [Compound 31, 6,8-diprenylorobol] yielded an IC50 of 8 ± 2.58 µM. `CC(C)=CCc1c(O)c(CC=C(C)C)c2c(c1O)C(=O)C(c1ccc(O)cc1O)CO2` (centres unmarked) [Compound 32, orientanol E] showed an IC50 of 15.4 ± 9.71 µM. For `CC(C)=CCc1c(O)cc(CCc2ccccc2)c(CC=C(C)C)c1O` [Compound 33, 2,4-bis(3-methyl-2-buten-1-yl)-5-(2-phenylethyl)-1,3-benzenediol], the IC50 was 2.6 ± 1.2 µM.

Same assay, conditions: pure compounds; MUNANA, pH 6.0; highest tested 100 μM
`O=c1cc(-c2ccc(O)c(O)c2)oc2cc(O)cc(O)c12` [Compound 15, luteolin] was tested, and the “IC50 in FL assay against S. pneumoniae rNanA” value was “inactive”.

Same assay, conditions: pure compounds; MUNANA, pH 6.0; highest tested 100 μM; read-out: IC50 in FL assay against S. pneumoniae rNanA
`CCC(CC)O[C@@H]1C=C(C(=O)O)C[C@H](N)[C@H]1NC(C)=O` [Oseltamivir carboxylate GS4071, reference compound] was tested, and the IC50 was 6.98 ± 2.44 µM. sanggenon D [Compound 3] was tested, and the IC50 was 3.15 ± 1.01 µM. With sanggenon G [Compound 4] the IC50 was 2.9 µM and 2.91 µM.

Values joined by “and” are separate entries in the source; they are usually repeats but may differ in a detail not shown here. Equal entries are not always repeated.
